# Measurements: paper PMC4242493
# The other results are listed elsewhere or left out. The list includes weakly bound sequences.
# Target: MaxL homodimer (UniProt P61244)
# Assay: universal protein-binding microarray (PBM)
# Details: PBS-based mixture, 10 nM His-tagged protein dimer, 2% milk, 200 ng/uL BSA, 50 ng/uL salmon testes DNA, 0.02% TX-100; detection with Alexa 488 anti-His …; high values mean tight binding; most listed sequences are background and not binding sites; double strand, one strand shown
# Sequence of UniProt P61244 (P61244 whole entry): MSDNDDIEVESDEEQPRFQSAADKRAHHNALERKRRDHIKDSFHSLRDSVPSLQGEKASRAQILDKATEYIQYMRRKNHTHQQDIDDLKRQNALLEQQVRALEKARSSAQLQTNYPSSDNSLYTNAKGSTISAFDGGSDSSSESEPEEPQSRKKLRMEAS
row,Sequence,binding signal (normalized occupancy)
1,AAGTAAGA,0.0765
2,CGCCGACC,0.0727
3,AGTTCATC,0.0772
4,AATTAAGG,0.0739
5,ATCATAGA,0.0779
6,AACGCGGC,0.0757
7,CATGGACC,0.0885
8,AAATGATC,0.077
9,CGCAGGCA,0.0706
10,TGAATACA,0.0789
11,GGACGTGA,0.0764
12,CAGAAAGC,0.0706
13,ATACAGTA,0.0872
14,AATGCCAT,0.0805
15,TTCCCAAA,0.0752
16,AGGGCTTG,0.0687
17,CGGTTCTA,0.0676
18,CAAGCACA,0.0792
19,TAGAGCGA,0.0751
20,ACACGTGC,0.567
21,CCATGCGC,0.121
22,ATCCCTAA,0.0765

row,Sequence,binding signal (normalized occupancy)
1,ATCGCGCA,0.0728
2,CGCTGCCA,0.0759
3,ATCGGTCG,0.0689
4,AGGACAAT,0.0757
5,CAAAATCC,0.077
6,GACTAATC,0.0734
7,CAGCGACG,0.0736
8,ATTTTCAA,0.073
9,CGCACGGA,0.0722
10,AACGTCCC,0.0732
11,CTGTATAA,0.0827
12,CGGCCCTA,0.0716
13,GAACAGGC,0.0747
14,TGCCAAAA,0.0792
15,AGGCATGG,0.0974
16,GAAAGTTA,0.0806
17,ATTGCGTA,0.08
18,AACTCGAA,0.0701
19,GCTATGGA,0.0781
20,CTAAATAC,0.0772
21,GCAAGACC,0.0691
22,ATGGTATC,0.0832

row,Sequence,binding signal (normalized occupancy)
1,CTCTTAAC,0.078
2,CTGAGATC,0.0763
3,GGGGCATA,0.0817
4,AGCATAAT,0.0823
5,CAGGTAGG,0.0726
6,GCTGCTCA,0.0787
7,AGGTTCGG,0.0678
8,AGCGAATC,0.0773
9,ATCCCTGG,0.0736
10,TCTCTCAA,0.0726
11,CTGCACTA,0.0731
12,ACGCGAAC,0.076
13,TGTGGTAA,0.0816
14,ACTAACTG,0.0712
15,GACGTCAA,0.078
16,ACGCCCTA,0.0732
17,TGCGGCAA,0.0776
18,ACTCGGAG,0.0714
19,AAGTAACG,0.073
20,CGAAGGAG,0.0687
21,ATTAAGCG,0.0782
22,CCGGGCCG,0.065

row,Sequence,binding signal (normalized occupancy)
1,CGAATTCG,0.0678
2,ATATCTAA,0.0791
3,TCATATAA,0.085
4,CAATAATG,0.0823
5,ATTGTGAG,0.0775
6,GATCGGGC,0.0706
7,ACGGGGCG,0.0815
8,ACCCTGCT,0.0725
9,CAGGCGAG,0.073
10,CCAGGCTC,0.0701
11,CCACTGTC,0.0708
12,AGGCAAAA,0.0712
13,GCAAATCA,0.0792
14,ACCACCAG,0.0743
15,ACGGCAGT,0.0704
16,GACAAGTA,0.0778
17,GGTACGAA,0.0733
18,ACTCTCAG,0.0718
19,ATCTTTCG,0.0726
20,ACGGCGAT,0.0744
21,ACAAAGGT,0.0757
22,AACGCCTC,0.0708

row,Sequence,binding signal (normalized occupancy)
1,CCGTGCTC,0.0737
2,CGTTCTTA,0.0701
3,CGCGGCAC,0.0765
4,ACTTGTTC,0.0741
5,ACGCGTTC,0.0785
6,ACTCTTTA,0.0729
7,GCGGAAAA,0.0713
8,CAATTCTG,0.074
9,CGATATGC,0.0806
10,GCGCCTGA,0.0712
11,TGCTCGAA,0.0717
12,AGCCCTCA,0.0761
13,CACAAAGG,0.0753
14,CCGCCTTA,0.0713
15,AGCGCAAT,0.0765
16,GCATTGTA,0.0806
17,CTTCCGGC,0.0677
18,CACAGTGC,0.0774
19,CGATGGCG,0.0725
20,CCCGCCTA,0.0791
21,GCCGATTA,0.0745
22,GCCCTCAC,0.078
